The campaign covered roughly 420,000 compounds. About 50,000 (12%) were called active. Inconclusive results, whose numbers are uncertain, are shown with a selection of clear calls. Calls follow the shape of the dose curve; as a rule, active = well fitted inhibition curve with a large enough effect; inconclusive = small, poorly fitted or top-dose-only effect; inactive = flat fitted curve, though single readings scatter. Potencies of inconclusive entries are left out as doubtful fits.
Test: qHTS for Inhibitors of human tyrosyl-DNA phosphodiesterase 1 (TDP1): qHTS in cells in presence of CPT; also: nearly all actives have a fitted effect of over 55% in size
Details: chicken DT40 Tdp1-/-;hTDP1 cells + 20 nM CPT, ATP luminescence, 48 h; activity change, negative = growth inhibition: at 46.2 µM (top of the series) unless noted
In short: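 Chicken DT40 Tdp1-/- cells complemented with human TDP1, 400 cells/well, exposed to compounds plus 20 nM camptothecin for at least 48 h at 37 C; viability read as ATP content by CellTiter-Glo luminescence.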
With O=S(=O)(Nc1nc2ccccc2nc1Cl)c1ccc(F)cc1 the Potency was inconclusive [inhibitor, single point].
For O=C(CSc1ccccc1)NCc1ccc2c(c1)CCN2C(=O)c1ccc(Cl)cc1, the “activity change, negative = growth inhibition” value was inactive: -11.6%.
In the case of CCOc1ccc(NCc2cc3cc(OC)ccc3[nH]c2=O)cc1, the Potency is reported as active: 5.8 µM.
For Cc1ccc(C)c(Oc2cc(NC(=O)CCCn3nc(C)c([N+](=O)[O-])c3C)cc([N+](=O)[O-])c2)c1, the Potency was inconclusive [inhibitor, single point].
For O=S(=O)(NCc1ccccc1)c1ccc(S(=O)(=O)N(Cc2cccs2)CC2CCCO2)cc1 (stereo not drawn), the “activity change, negative = growth inhibition” value was inactive: -16.1%.
For O=C(NC1CCCCC1)N1CCSC1=Nc1ccccc1, the activity change, negative = growth inhibition was inconclusive: -34.8% [inhibitor].
In the case of CCn1c(SCC(=O)N2CCCCCC2)nc2c(c1=O)SCC2, the Potency is reported as inconclusive [inhibitor, single point].
For COC(=O)c1cc(NC(=O)c2cc(-c3ccccc3Cl)oc2C(F)(F)F)ccc1N1CCOCC1, the Potency was inconclusive [inhibitor, single point].
In the case of O=C(CCN1C(=O)/C(=C/c2ccccc2Cl)SC1=S)N1CCOCC1, the Potency is reported as active: 5.17 µM.
For Cc1ccc(N(C)S(=O)(=O)c2ccc3[nH]c4c(c3c2)CCCC4)cc1, the Potency was inconclusive [inhibitor, single point].
With CCc1ccc(N/C(N)=N/c2nc(CSc3ccccn3)cc(=O)[nH]2)cc1 the Potency was active: 14.6 µM.
For COc1ccc(OC)c(S(=O)(=O)N2Cc3ccccc3CC2C(=O)Nc2nccs2)c1 (stereo not drawn), the Potency was inconclusive [inhibitor, single point].
For CCOc1ccccc1N1CCN(C(=O)c2cc(S(=O)(=O)N(C)C)ccc2N2CCCC2)CC1, the Potency was inconclusive [inhibitor, partial curve].
With COc1ccc2c(C(=O)c3ccc(C)cc3)n(Cc3ccc(C(N)=O)cc3)[n+]([O-])c2c1 the Potency was inconclusive [inhibitor, full curve, poor fit].
In the case of CC(NC(=O)c1ccc(NC(=O)c2nsc3ccccc23)cc1)c1ccccc1 (stereo not drawn), the Potency is reported as inconclusive [inhibitor, partial curve].
With O=C(Nc1nc2ccccc2n1CCN1CCOCC1)c1ccc(Cn2cc([N+](=O)[O-])cn2)o1 the Potency was active: 16.4 µM.
For Cn1nnnc1SCCNCc1ccc(OCc2ccccc2Cl)cc1, the Potency was inconclusive [inhibitor, single point].
For O=C(Nc1ccccc1)N(Cc1ccc2c(c1)OCO2)Cc1nc2ccccc2c(=O)[nH]1, the Potency was inconclusive [inhibitor, single point].
In the case of COc1ccc(/C=N/NC(=O)c2ccc(F)cc2)cc1CN1CCc2cc(OC)c(OC)cc2C1C (stereo not drawn), the Potency is reported as inconclusive [inhibitor, single point].
In the case of Cc1cccc(C(=O)Nc2cccc(C(=O)OCc3cc(=O)n4nc(C(C)C)sc4n3)c2)c1, the Potency is reported as inconclusive [inhibitor, partial curve, poor fit].
For O=C1C=C(c2ccc3ncccc3c2)C[C@@H](c2ccc(Cl)cc2)C1, the Potency was active: 23.1 µM.
With OC(COC(c1ccccc1)c1ccccc1)CN1CCN(c2ccccn2)CC1 (stereo not drawn) the “activity change, negative = growth inhibition” value was inactive: -21.1%.
For O=C(c1cc(Sc2ccc(Cl)cc2)nc2ccccc12)N1CCN(c2ccccn2)CC1, the Potency was inconclusive [inhibitor, single point].
With COc1ccc(NC(=S)NC(NC(C)=O)C(Cl)(Cl)Cl)c([N+](=O)[O-])c1 (stereo not drawn) the “activity change, negative = growth inhibition” value was inactive: 2.93%.
With NS(=O)(=O)c1ccc(CNC(=S)NCc2ccc(F)cc2)cc1 the “activity change, negative = growth inhibition” value was inactive: 9.63%.
In the case of CC(C)Cn1c2c(c(O)c(C(=O)Nc3nccs3)c1=O)CCCC2, the Potency is reported as active: 16.4 µM.
For C[C@]12CCC(=O)C=C1CCC1C2CC[C@@]2(C)C1CCC21OCCO1 (stereo partly drawn), the Potency was inconclusive [inhibitor, single point].
For CC(C)(C)OC(=O)C[C@@H]1C/C=C\C[C@H](CC(=O)NCCO)C(=O)N2CCC[C@@H]2COC1=O, the “activity change, negative = growth inhibition” value was inactive: -8.02%.
For O=C(Nc1cccc(C(F)(F)F)c1)OCCN1CCN(Cc2ccccc2)CCC1=O, the Potency was active: 20.6 µM.
In the case of Cc1cccc(NC(=O)c2sc3nc4c(cc3c2N)CCCCCC4)c1C, the Potency is reported as active: 1.46 µM.
In the case of COC(=O)c1c(NC(=O)Cc2coc3ccc(C)cc23)sc2c1CCC2, the Potency is reported as inconclusive [inhibitor, single point].
In the case of c1ccc(Nc2nc(-c3cccnc3)nc3ccccc23)cc1, the Potency is reported as inconclusive [inhibitor, single point].
With CCOC(=O)c1ccc(NC(=O)c2cccc3c2C(=O)N(CC2CCCO2)C3)cc1 (stereo not drawn) the Potency was inconclusive [inhibitor, single point].
With O=C1/C(=C\c2c(NCCOCCO)nc3ccccn3c2=O)SC(=S)N1Cc1ccco1 the “activity change, negative = growth inhibition” value was inactive: -5.36%.
With C/C(=N\NC(=O)c1ccccc1N)c1ccc(NC(=O)Cc2ccccc2)cc1 the “activity change, negative = growth inhibition” value was inactive: 1.88%.
In the case of CCC(=O)c1cn([C@H](CCC(OC)OC)CC(=O)OC(C)(C)C)cc1CC, the Potency is reported as inconclusive [inhibitor, single point].
For CN(Cc1ccccc1)c1ccc(-c2nc(-c3ccco3)no2)cc1[N+](=O)[O-], the Potency was inconclusive [inhibitor, single point].
In the case of Cc1nc(N2CCN(Cc3ccc4c(c3)OCO4)CC2)nc2c1C(=O)CC(c1ccco1)C2 (stereo not drawn), the Potency is reported as inconclusive [inhibitor, single point].
For Cc1cc(F)ccc1-n1nnc(C(N)=O)c1C, the “activity change, negative = growth inhibition” value was inactive: 4.91%.
With Cc1ccc(-c2csc(NC(=O)c3ccc(Br)cc3)c2C(=O)O)cc1 the Potency was inconclusive [inhibitor, partial curve].
With CN(C(=O)c1cccc(NC(=O)Cc2ccc(NC(=O)C3CCCN(C(=O)C4CCC4)C3)cc2)c1)C1CC1 (stereo not drawn) the Potency was inconclusive [inhibitor, single point].
With OCCC1CN(Cc2nc(-c3ccccc3)cs2)CCN1CCc1ccccc1 (stereo not drawn) the Potency was inconclusive [inhibitor, single point].
In the case of Cc1ccc(Nc2ccc([N+](=O)[O-])nc2[N+](=O)[O-])cc1, the Potency is reported as inconclusive [inhibitor, single point].
In the case of CC1(c2ccccc2)NC(=O)N(CC(=O)Nc2nc(-c3ccccn3)cs2)C1=O (stereo not drawn), the Potency is reported as active: 23.1 µM.
In the case of O=C(c1ccccc1Cl)N(Cc1ccco1)Cc1ccco1, the Potency is reported as active: 20.6 µM.
With CCOC(=O)COn1c(=O)c(-c2ccc(OC)cc2)[n+]([O-])c2ccccc21 the Potency was inconclusive [inhibitor, partial curve].
With COc1ccc(/C=N/NC(=O)c2sccc2OCc2ccc(F)cc2)cc1OC the Potency was active: 16.4 µM.
With Cc1ccc(NC(=O)CSc2c3c(nc4ccccc24)CCCC3)cc1F the Potency was inconclusive [inhibitor, single point].
In the case of COc1ccc(CNC(=O)C2CCCN2S(=O)(=O)c2ccc(F)cc2)cc1 (stereo not drawn), the “activity change, negative = growth inhibition” value is reported as inactive: 5.4%.
In the case of CC(C)C1C(=O)Nc2ccc(S(=O)(=O)NCc3ccc(Cl)cc3)cc21 (stereo not drawn), the Potency is reported as active: 23.1 µM.
With COc1cccc(NC(=O)c2cnc(NS(=O)(=O)c3ccccc3)nc2)c1 the Potency was inconclusive [inhibitor, single point].
In the case of CC(Sc1nnc(C2CC2)n1C1CC1)C(=O)c1ccc(Br)cc1 (stereo not drawn), the Potency is reported as inconclusive [inhibitor, single point].
In the case of Cc1cc(=O)n(CC(=O)Nc2ccc([N+](=O)[O-])cc2)c(-n2nc(C)cc2C)n1, the Potency is reported as active: 18.4 µM.
For CCN(CC)c1ccc(N2C(=O)/C(=C\c3cccs3)SC2=S)cc1, the Potency was inconclusive [inhibitor, single point].
With CCOC(=O)c1ccc(NC(=O)CC2C(=O)N(c3ccc(C)cc3)C(=O)N2C2CCCCC2)cc1 (stereo not drawn) the “activity change, negative = growth inhibition” value was inactive: -24.7%.
With Cc1cc(C(F)(F)F)nn1-c1nc(-c2ccccc2)cc(C(F)(F)F)n1 the Potency was inconclusive [inhibitor, single point].
With CCCCN(CCCC)CCCOC(=O)c1ccc(N)cc1 the Potency was “inactive”.
For O=C(Cc1cccc(NC(=O)C2CCN(C(=O)C3CCCCC3)CC2)c1)Nc1cccc(C(=O)N2CCCCC2)c1, the “activity change, negative = growth inhibition” value was inactive: -2.01%.
With COc1ccc(OCCNC(=O)c2ccccc2Cl)cc1 the “activity change, negative = growth inhibition” value was inactive: -16.5%.
With Cc1cc(C)c(S(=O)(=O)N2CCCCC2)c(C)c1N(C)S(=O)(=O)c1ccc(Cl)cc1 the Potency was inconclusive [inhibitor, single point].
In the case of Cc1c(-c2ccccc2)oc2c(C(=O)OCC(=O)Nc3cccc(F)c3)cccc2c1=O, the Potency is reported as inconclusive [inhibitor, single point].
For CCN1CCN(CCCNC(=O)c2ccc3c(c2)N(Cc2ccccc2)CCS3)CC1, the Potency was active: 23.1 µM.
With COc1ccccc1C(=O)Nc1ccc(NC(=O)C2CCCCC2)nc1 the activity change, negative = growth inhibition was inconclusive: -17.8% [inhibitor].
For CCc1cc(C(=O)NNC(=S)Nc2ccccc2C)cs1, the Potency was inconclusive [inhibitor, partial curve, poor fit].
In the case of CCN1C(=O)c2cccc3c(S(=O)(=O)Nc4ccccc4O)ccc1c23, the Potency is reported as inconclusive [inhibitor, single point].
In the case of COc1ccc(CCN2C(=O)c3[nH]nc(-c4ccccc4O)c3C2c2cccc(OC)c2)cc1 (stereo not drawn), the Potency is reported as inconclusive [inhibitor, single point].
In the case of COc1ccc(C(CNC(=O)c2ccc(NS(=O)(=O)c3cccc([N+](=O)[O-])c3)cc2)N2CCOCC2)cc1 (stereo not drawn), the “activity change, negative = growth inhibition” value is reported as inactive: 8.24%.
For CCN1CCN(c2ccc(S(=O)(=O)N3CCCCC3)cc2NC(=O)c2cccc(C)c2[N+](=O)[O-])CC1, the Potency was inconclusive [inhibitor, single point].
% is scaled to controls: 0 for no effect and ±100 for the full control effect; potency is read from the fitted curve at half-maximal effect; tags tell the direction and shape of the fitted curve.
